The values below come from patent US20230174655A1 (published 2023).

For the test, the target named is T1, FcγRIIa type R extracellular domain with C-terminal His tag (human, UniProt P12318 34-217).
T1 construct: extracellular domain; also called FcγRIIa R; FcγRIIaR
T1 sequence (looked up): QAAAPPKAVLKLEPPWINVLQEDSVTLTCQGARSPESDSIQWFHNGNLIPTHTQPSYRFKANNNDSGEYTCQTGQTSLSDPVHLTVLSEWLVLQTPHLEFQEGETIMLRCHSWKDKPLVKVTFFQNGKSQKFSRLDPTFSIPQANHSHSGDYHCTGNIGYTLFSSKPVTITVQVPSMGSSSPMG
In words: SPR, antibody captured on Protein A, FcγR analyte, 1:1 kinetics. Background: SPR reads the build-up and loss of mass on a sensor chip optically.

As a reminder, the Kd is a measure of binding affinity in units of concentration. Low values mean tighter binding, high ones weaker binding.

B1: IgG1-v1 (antibody)
heavy: QVQLQESGPGLVKPSETLSLTCAVSGHSISHDHAWSWVRQPPGEGLEWIGFISYSGITNYNPSLQGRVTISRDNSKNTLYLQMNSLRAEDTAVYYCARSLARTTAMDYWGEGTLVTVSS[here human IgG1 constant region with P238D (EU numbers) without letters]
light: DIQMTQSPSSLSASVGDRVTITCRASQDISSYLNWYQQKPGKAPKLLIYYTSRLHSGVPSRFSGSGSGTDFTFTISSLQPEDIATYYCQQGNTLPYTFGQGTKVEIKRTVAAPSVFIFPPSDEQLKSGTASVVCLLNNFYPREAKVQWKVDNALQSGNSQESVTEQDSKDSTYSLSSTLTLSKADYEKHKVYACEVTHQGLSSPVTKSFNRGEC
notes: H chain: IL6R-G1d with P238D (EU numbering); also called IL6R-G1d-v1/IL6R-L; copies: 2 + 2
Take B1: binding was put at a Kd of 12 µM.
